From PubChem BioAssay AID463173 (ICCB-Longwood Screening Facility, Harvard Medical School, 2010)
In all, about 52,000 compounds went through this assay and about 4,300 (8.3%) were called active. Cut-off read from the data, not from the text of the source: active = survival mostly below about 52% (no sharp cut-off); inactive = mostly above about 56%. This is one part of the list.

Tested on: DeltatarO mutant
Test: S. aureus survival, RN4220 and DeltatarO strains – OD600, teichoic acid synthesis inhibitors, primary screen (AID 463173)
Conditions: S. aureus RN4220 wild type/DeltatarO growth, OD600, 18 h, active compounds read low, screened at 18.75 µg/mL (by protocol)

| SMILES | survival |
| --- | --- |
| COc1cccc2cc(C(=O)N3CCCCC3)c(=O)oc12 | inactive: 85% |
| COc1ccc(NC(=O)C2=C(C)Nc3nc(SC)nn3C2c2cc(OC)ccc2OC)cc1 (stereo not drawn) | inactive: 87% |
| Cc1nnc(N2CCC(C(=O)NCc3ccc(N(C)C)cc3)CC2)c2nn(-c3ccccc3)c(C)c12 | inactive: 97% |
| O=C(NCCCO)C(=O)Nc1c2c(nn1-c1ccc(F)cc1)CSC2 | inactive: 91% |
| CC(C)(C)c1cn2ccc3ccccc3c2n1 | inactive: 108% |
| Cc1ccc(NC(=O)c2cc(-c3ccc4c(c3)OCO4)on2)cc1 | inactive: 75% |
| CC1=C(C(=O)Nc2ccc(C)cc2)C(c2ccccc2Cl)n2nnnc2N1 (stereo not drawn) | inactive: 144% |
| CCOc1ccc(CNC(=O)COc2cc(=O)n(C)c3ccccc23)cc1 | inactive: 67% |
| COc1ccc(N(C)C(C)=O)cc1 | inactive: 91% |
| Fc1ccc(CNc2nc3c(-c4ccc(F)cc4)nnn3c3ccccc23)cc1 | inactive: 105% |
| COc1cc(C(=O)NCc2ccc3c(c2)CCN3C(=O)c2ccncc2)cc(OC)c1OC | inactive: 101% |
| Cc1ccc(NC(=O)NCCc2c(C)nn(C)c2C)c(Cl)c1 | inactive: 72% |
| CCCCSc1ncnc2c1sc1nc(N3CCOCC3)c3c(c12)CCCC3 | inactive: 77% |
| COc1ccc(-c2noc(CSCC(=O)Nc3ccc(C)cc3Br)n2)cc1OC | inactive: 87% |
| COc1cccc(/C=C/c2nc(C#N)c(N(C)Cc3ccccc3)o2)c1 | inactive: 73% |
| COCCCNC(=O)CN1C(=O)c2c(c3ccccc3n2C)C1c1ccc(OC)cc1 (stereo not drawn) | inactive: 83% |
| Cc1nn2c(=O)cc(COC(=O)c3ccc(C(C)(C)C)cc3)nc2s1 | inactive: 78% |
| CSc1cccc(NC(=O)CN(C)S(=O)(=O)c2ccc3c(c2)n(C)c(=O)c(=O)n3C)c1 | inactive: 87% |
| Cc1cccc(C(=O)N2CCC(C)CC2)c1 | inactive: 94% |
| O=C(NCCN1CCOCC1)N1CCNC1=O | inactive: 58% |

| SMILES | survival |
| --- | --- |
| O=c1ccc2cc(S(=O)(=O)N3CCCC3)ccc2[nH]1 | inactive: 101% |
| COc1cc(NC(=O)c2ccc(C(=O)Nc3cc(OC)c(Cl)cc3OC)cc2)c(OC)cc1Cl | inactive: 60% |
| CCCN1CCN(CCCNC(=O)Cn2nc(C)n3c(cc4cc(F)ccc43)c2=O)CC1 | inactive: 93% |
| CCC(=O)N1CCc2cc(Br)cc(S(=O)(=O)CCC(=O)NCc3ccccc3)c21 | inactive: 90% |
| Cc1cccc(-n2ccnc2SCC(=O)Nc2ccccc2C(F)(F)F)c1 | inactive: 69% |
| CCn1cc(C(=O)NCCc2ccccc2)c(=O)c2cc(S(=O)(=O)N3CCOCC3)ccc21 | inactive: 81% |
| COc1ccc(CNC(=O)CCc2c(C)nc3c(c2C)c(=O)n(C)c(=O)n3C)cc1 | inactive: 115% |
| CCc1ccc(NC(=O)CSC2=Nc3ccccc3C3=NC(CCC(=O)NCc4cccs4)C(=O)N23)cc1 (stereo not drawn) | inactive: 73% |
| O=C(/C=C\c1ccco1)Oc1cccc2cccnc12 | active: 2% |
| COc1ccc(NC(=O)c2c(C)oc3ccc(O)c(CN4CCN(C)CC4)c23)cc1Cl | inactive: 68% |
| COc1ccc(CCNC(=O)c2ccc(CS(=O)(=O)c3ccc(C)cc3)o2)cc1OC | inactive: 79% |
| CCOC(=O)C1CCCN(CCC(=O)Nc2ccc(OC)cc2OC)C1 (stereo not drawn) | inactive: 164% |
| COc1cccc(N2CCN(S(=O)(=O)c3ccc(-c4cnc(C5CC5)o4)cc3)CC2)c1 | inactive: 82% |
| CC1CCN(S(=O)(=O)c2ccc3nc(-c4cccnc4)cc(C(=O)NCCCOC(C)C)c3c2)CC1 | inactive: 70% |
| COc1ccc2[nH]cc(CCNC(=O)Nc3ccccc3C)c2c1 | inactive: 45% |
| Cc1ccc(Cl)cc1NC(=O)c1oc2ccc(S(=O)(=O)N3CCC4(CC3)OCCO4)cc2c1C | inactive: 67% |
| Cc1ccc2sc(N3CCN(C(=O)C4COc5ccccc5O4)CC3)nc2c1C (stereo not drawn) | inactive: 144% |
| COc1ccc(C)cc1NC(=O)CN1CCN(CC(=O)Nc2ccccc2F)CC1 | inactive: 96% |
| Cc1cc(C)c(NC(=O)c2sc3nc(C)cc(C)c3c2N)c(C)c1 | inactive: 52% |
| COc1cc(CN2CCc3nc(Nc4ccc5c(c4)OCCO5)ncc3C2)cc(OC)c1OC | inactive: 91% |

| SMILES | survival |
| --- | --- |
| CCC(=O)N1CCc2cc(S(=O)(=O)NC(C(=O)NCc3ccc(OC)cc3)C(C)C)ccc21 (stereo not drawn) | inactive: 92% |
| Cc1ccccc1-n1c(SCC(=O)N(C(C)C)C(C)C)nnc1-c1cccnc1 | inactive: 99% |
| O=C(NC1CCCC1)c1cc2ccccc2oc1=O | inactive: 82% |
| O=C(NC1CCCCCC1)C1CCCO1 (stereo not drawn) | inactive: 89% |
| Cc1ccc(Cn2c(C)c(CNC3CCCCC3)c(C(=O)O)c2C)cc1 | inactive: 90% |
| COc1ccc(OC)c(CCNC(=O)CCCc2nnc3n(C)c(=O)c4sccc4n23)c1 | inactive: 95% |
| COc1cccc(N2C(=O)CSC23C(=O)N(CC(=O)Nc2cc(C)ccc2C)c2ccccc23)c1 (stereo not drawn) | inactive: 94% |
| COC(=O)c1ccc(NC(=O)c2nn(C)c3c2CS(=O)(=O)c2ccccc2-3)cc1 | inactive: 81% |
| CCOC(=O)c1cc2c(=O)n3ccccc3nc2n(Cc2ccco2)c1=NC(=O)c1cc(C)cc(C)c1 | active: 29% |
| CCc1ccccc1NC(=O)CC(c1ccc(F)cc1)N1Cc2ccccc2C1=O (stereo not drawn) | inactive: 117% |
| O=C(Nc1ccccc1C(=O)OCc1cc(=O)n2ccsc2n1)c1ccccc1Cl | inactive: 60% |
| COCCn1c(=N)c(C(=O)NC2CCCC2)cc2c(=O)n3cc(C)ccc3nc21 | inactive: 70% |
| Cc1nc2cc(NC(=O)Nc3ccccc3Cl)ccc2n1C | inactive: 86% |
| CCN(CC)CCNC(=O)c1cn(CC)c2ccc(S(=O)(=O)N3CCc4ccccc4C3)cc2c1=O | inactive: 110% |
| CCC(=O)N1CCc2cc(Br)cc(S(=O)(=O)N3CCN(c4cc(C)ccc4C)CC3)c21 | inactive: 56% |
| COc1cc(-c2cc3n(C)c(C)c(CCC(=O)NC4CCCCC4)c(=O)n3n2)cc(OC)c1OC | inactive: 92% |
| CCOC(=O)c1cc(-c2ccc(C)cc2)n(CCC(=O)NCCc2ccc(C)cc2)c1C | inactive: 80% |
| CCC(=O)N1CCc2cc(Br)cc(S(=O)(=O)CCC(=O)Nc3ccc(Cl)cc3)c21 | inactive: 80% |
